# Source: article PMC12040169 (PLOS Biology, 2025)
# The other results are listed elsewhere or left out.
# Tested on: T1, C. trachomatis L2/434/Bu expressing GFP (CTL2-GFP)
# T1 construct: L2/434/Bu GFP intracellular growth in HeLa cells
# Design: species or system HeLa; C. trachomatis total inclusion area by high-content imaging, normalised to DMSO
# Settings: total inclusion area; 28.5 h, 10 µM; inhibitor
# Procedure, shortened: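 High-content images of fixed, Hoechst-stained infected cultures supply inclusion area and count (growth) plus nuclei number (viability), complementing bulk GFP/resorufin fluorescence. MIC determination is unchanged from the primary assay.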
row,Compound,% of control remaining
1,COc1cccc(C2=CC(c3ccccc3Cl)N3N=NNC3=N2)c1 (stereo not drawn) [CBK287943],107.849
2,COc1ccc(-c2nnc([C@H]3CCN(Cc4ccccn4)C3)o2)cc1 [CBK289401],107.364
3,CCCNC(=O)c1ccc(C)c(NC(=O)NC2CCOC2)c1 (stereo not drawn) [CBK306794],78.4457
4,CC1(C)CC(NC(=O)C2CCCN(S(C)(=O)=O)C2)c2ccccc2O1 (stereo not drawn) [CBK304365],61.1054
5,CC(=O)Nc1ccc(S(=O)(=O)Nc2ccnc(N3CCNCC3)n2)cc1 [CBK000363C],76.9498
6,c1cnc2[nH]c(C3CC3)c(CN3CCN4CCCCC4C3)c2c1 (stereo not drawn) [CBK285313],85.3579
7,Cc1cc(C=O)c(C)n1-c1ccc(Oc2ccc([N+](=O)[O-])cn2)cc1 [CBK264167],91.8779
8,OCCn1ncc2c(NCc3cccnc3-n3cccn3)ncnc21 [CBK305977],80.7752
9,COCCNc1nc(-c2cc(C(C)C)ccc2OC)ccc1C(=O)NCCNC(C)=O [CBK105985],97.5751
10,NC(=O)c1nc(-c2ccccc2)nc2c1[nH]c(=O)n2-c1cccc(Cl)c1 [CBK287544],116.082
11,CSCC(=O)N1C[C@@H]2C[C@H](C1)c1c(-c3cncnc3)ccc(=O)n1C2 [CBK289195],130.375
12,CCCN1C(=S)N(CCO)C(=O)/C1=C/C=C1/Oc2ccccc2N1CCC(=O)O [CBK261400],90.3125
13,CCC12CN3CC(CC)(CN(C1)C3c1ccc([N+](=O)[O-])cc1)C2=O (stereo not drawn) [CBK263689],100.254
14,COc1ccc([C@@]23CC[C@@H](NC(=O)Nc4ccc(Cl)c(F)c4)C[C@@H]2N(C(C)C)CC3)cc1OC [CBK056852T],83.4448
15,Cc1nc2n(n1)C(c1ccccn1)C1=C(CC(C)CC1=O)N2 (stereo not drawn) [CBK288230],91.6455
16,COc1ccc(S(=O)(=O)Nc2ccc(C(=O)O)cc2)cc1[N+](=O)[O-] [CBK266130],105.583
17,CCCc1ccc(-c2nccn2CCn2cc(C)nn2)o1 [CBK307688],80.3546
18,Cc1cc(C(=O)CSc2nc3cc(Cl)cnc3[nH]2)c(C)n1C1CC1 [CBK305867],6.261
19,CSCC(CSC)OC(=O)Nc1ccc(Cl)cc1 [CBK086154],21.6429
20,CC(=O)Nc1ccc(-c2ccc(COC3CCN(C(=O)OC(C)(C)C)CC3)cc2)cc1 [CBK138215],47.574
21,Cc1cccc(S(=O)(=O)Nc2cc(OCCN3CCOCC3)c3occc3c2)c1 [CBK067420C],94.6908
22,COc1ccc(N2CCN(C(=O)CCC(=O)c3cccs3)CC2)cc1 [CBK091413],136.805
23,O=C(N[C@H]1CCN2C(=O)c3cc(-c4ccc5c(c4)OCO5)ccc3NC(=O)[C@H]12)C1CCCC1 [CBK289333],98.334
24,O=C(NCCc1nc2ccccc2[nH]1)c1cccc(Cl)c1 [CBK263514],87.7653
25,Cc1ccc(C(=O)N(Cc2ccncc2)C2CCCCC2)cc1C [CBK085386],91.6272
26,CC(=O)c1cc(C(=O)N(C)CCOc2ccccc2)cs1 [CBK282560],119.135

row,Compound,% of control remaining
1,COc1ccc(/C=C/C(=O)Nc2cc(S(N)(=O)=O)ccc2C)cc1 [CBK262651],98.1959
2,CCOC(=O)C1CCN(CCC(=O)Nc2ccc(F)c(F)c2)CC1 [CBK264252],102.005
3,CN(Cc1cnn(C)c1)C(=O)c1ccc(Cl)cc1Br [CBK305404],59.2534
4,Brc1ccc(OCc2ccccc2)c(CNCCN2CCOCC2)c1 [CBK278171C],109.292
5,O=S(=O)(/N=C(/Nc1nccs1)c1ccccc1)c1cccs1 [CBK268709],105.925
6,Cc1c(-c2csc(CC#N)n2)sc2ccccc12 [CBK020828],59.952
7,COc1ccc(C)cc1C1(CNC(=O)N2CCC(C)(O)C2)CCOCC1 (stereo not drawn) [CBK305452],121.738
8,O=[N+]([O-])c1cccc(S(=O)(=O)NCCCn2ccnc2)c1 [CBK266676],75.5619
9,CC1=C(C(=O)OCC(C)C)C(c2ccc(C)cc2)N2C(=O)C(C)SC2=N1 (stereo not drawn) [CBK091646],61.6339
10,Cn1cc(CCNC(=O)Nc2ccc(N3CCCCC3)nc2)cn1 [CBK305656],72.548
11,Cc1nc2cc(C(=O)N(C)CCN3CCCCC3)ccc2n1C [CBK281854],113.15
12,CCN(CCN1CCOCC1)C(=O)c1[nH]c2c(F)cccc2c1C [CBK306772],93.1443
13,CCC(=O)Nc1nc2c(OC)ccc(C)c2s1 [CBK287616],83.0812
14,CC(C)c1ccc(CNC(=O)c2ccc(-c3ccoc3)nc2)cc1 [CBK156292],77.8874
15,O=C(O)CCC(NC(=O)c1ccc(I)cc1)C(=O)O (stereo not drawn) [CBK087614],102.221
16,O=C(O)c1cccc(NC(=O)c2ccc(CSc3ccc(Br)cc3)cc2)c1 [CBK263226],104.445
17,CCCCOc1ccc(S(=O)(=O)n2ccc3cc(N4CCNCC4)ccc32)cc1 [CBK001315C],7.741
18,COc1cc([C@@]23CC[C@@H](NC(=O)Nc4ccc(F)c(F)c4)C[C@@H]2N(C)CC3)ccc1O [CBK049958C],79.6429
19,Cc1nc(C)n(CC2CCCN(Cc3nc4c(F)cccc4[nH]3)C2)n1 (stereo not drawn) [CBK306218],45.6082
20,NC(=O)NCc1ccc(F)cc1 [CBK019769],118.181
21,CC(=O)Nc1ccc(S(=O)(=O)NCCSc2ccccn2)cc1 [CBK263576],119.268
22,CSc1ncc(Cl)c(C(=O)Nc2nnc(C)s2)n1 [CBK268920],101.945
23,CC(C)Oc1ccc(C(=O)C2=C(O)C(=O)N(Cc3cccnc3)C2c2ccncc2)cc1 (stereo not drawn) [CBK264920],113.144
24,O=C(Nc1cccnc1)C1CCN(C(=O)OCc2ccccc2)CC1 [CBK083187],90.5376
25,CCN(C(=O)Cn1c(C)cc(=O)c2ccccc21)C1CCOC(C)(C)C1 (stereo not drawn) [CBK306797],41.4195
